Test results from PubChem BioAssay AID652104 (National Center for Advancing Translational Sciences (NCATS), 2013).
In all, about 410,000 compounds went through this assay and about 7,200 (1.8%) were called active. The inconclusive results got no clear call from the source; some entries with a clear call stand among them for comparison. Calls follow the shape of the dose curve; as a rule, active = well fitted activation curve with a large enough effect; inconclusive = small, poorly fitted or top-dose-only effect, or another doubt; inactive = no such curve, though single readings can be large or run the other way. No potency is given beside an inconclusive call; the fits are too rough.

Assay: qHTS of TDP-43 Inhibitors; also: nearly all actives have a fitted effect of over 50% in size; as to growth rescue (activation): % of control where 0% means no effect
Settings: TDP-43 expressing yeast growth rescue, BacTiter-Glo, 24 h; growth rescue (activation): at 46.1 µM (top of the series) unless noted
How it was run: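 Yeast expressing TDP-43 (pregrown in raffinose, seeded at OD600=0.02 in galactose medium) exposed to compounds 24 hr at 30 deg C. Growth read by BacTiter-Glo luminescence; rescue of toxicity appears as increased signal.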
Potency is read from the fitted curve at half-maximal effect; tags tell the direction and shape of the fitted curve.

Row | Structure (SMILES) | Potency | growth rescue (activation)
1 | Cc1ccccc1C(=O)NC(=S)Nc1ccccc1N1CCCC1 | inconclusive [activator, single point] | 
2 | Cc1cc2n(n1)C(c1cn(-c3ccccc3)nc1C)Nc1c(C)cccc1-2 (stereo not given) | inconclusive [activator, partial curve] | 
3 | CN(c1ncnc2onc(-c3cccc(Cl)c3)c12)C1CCCCC1 | active: 22.4 µM | 
4 | Nc1c(C(=O)NC2CCCC2)c2nc3ccccc3nc2n1/N=C/c1cccnc1 | inconclusive [activator, single point] | 
5 | O=C(O)Cc1ccc(-c2ccccc2)cc1 | inconclusive [activator, single point] | 
6 | Cn1c(=O)c2c(nc(NCc3ccccc3)n2Cc2ccccc2)n(C)c1=O | inconclusive [activator, full curve, poor fit] | 
7 | Cn1c(=O)c2c(SCC(=O)NCc3ccco3)nc(-c3ccccc3)nc2n(C)c1=O | inconclusive [activator, partial curve] | 
8 | CCn1cc(C(=O)OCC(=O)NCc2ccccc2Cl)c(=O)c2ccc(C)nc21 | inconclusive [activator, partial curve] | 
9 | O=C(NCc1ccccc1)c1sc(=S)n2c1[nH]c(=O)c1ccccc12 | inconclusive [activator, partial curve] | 
10 | O=C(Nc1ccccc1Br)C1CCCN(S(=O)(=O)c2cccc3nsnc23)C1 (stereo not given) |  | inconclusive: 24.6% [activator]
11 | CCOC(=O)c1cn(Cc2cccc(C)c2)nn1 | inconclusive [activator, partial curve] | 
12 | O=C(NCCS(=O)(=O)N1CCN(c2ccccc2)CC1)C(c1ccccc1)c1ccccc1 | inactive | 
13 | COc1ccc(OCc2cc(C(=O)NC(C)c3cnn(C)c3)no2)c(Cl)c1 (stereo not given) | inconclusive [activator, single point] | 
14 | O=C(c1ccco1)N1CCN(c2nc3ccsc3c(=O)s2)CC1 | inconclusive [activator, partial curve] | 
15 | CCCN(Cc1ccccc1)C(=S)NC(=O)c1ccccc1[N+](=O)[O-] | inconclusive [activator, single point] | 
16 | Cc1cccc(N(C)C(=O)c2cc(S(=O)(=O)N3CCCC3)cn2C)c1 | inconclusive [activator, full curve, poor fit] | 
17 | COC/C=C/C1=CC(=O)C[C@H](c2ccc3c(c2)OCO3)C1 | active: 14.1 µM | 
18 | O=C(Nc1ccc2ccccc2c1)OC1CCS(=O)(=O)C1 (stereo not given) | inconclusive [activator, partial curve, poor fit] | 
19 | COc1ccc(-n2c(C)cc(C(=O)COc3ccc(C)nc3[N+](=O)[O-])c2C)cc1 | inconclusive [activator, partial curve] | 
20 | O=C(CCc1nc(-c2ccccc2F)no1)Nc1ccc(Oc2ccccc2)cc1 | inactive | 
21 | NC(=O)c1cc([N+](=O)[O-])ccc1NCc1ccc(F)cc1 | inconclusive [activator, full curve] | 
22 | Cc1ccc(-c2csc3ncnc(Cl)c23)cc1 | active: 15.8 µM | 
23 | O=c1[nH]c(=S)[nH]c2c1C(c1ccc(F)cc1)OC(CCC(F)(F)F)C2 (stereo not given) | inactive | 
24 | Cc1ccc(Nc2nc(-c3cccs3)cs2)nc1 | inconclusive [activator, single point] | 

Row | Structure (SMILES) | Potency | growth rescue (activation)
25 | Cc1ccc(S(=O)(=O)N(C)C[C@@H]2Oc3ncc(C#CCC(C)C)cc3C(=O)N([C@H](C)CO)C[C@H]2C)cc1 | active: 25.1 µM | 
26 | CSc1ncccc1C(=O)OCC(=O)NCCCc1ccccc1 | active: 17.8 µM | 
27 | CC(NC(=O)c1ccccc1)C(=O)NC1=NCCS1 (stereo not given) | inconclusive [activator, partial curve] | 
28 | O=S(=O)(Nc1ccccc1F)c1ccc2nsnc2c1 | inconclusive [activator, single point] | 
29 | COc1ccc([N+](=O)[O-])cc1NCc1cccc([N+](=O)[O-])c1 | active: 11.2 µM | 
30 | COc1ccc(-c2nn(-c3ccccc3)cc2/C=N/O)cc1OC | inconclusive [activator, partial curve] | 
31 | O=C(O)c1ccc([N+](=O)[O-])cc1-c1cc([N+](=O)[O-])ccc1C(=O)O | inactive | 
32 | Cc1ccc(/C(N)=N/OC(=O)C23CC4CC(CC(C4)C2)C3)cc1 | active: 2 µM | 
33 | C=C(C(=O)c1ccccc1)C(C)CC(=O)c1ccccc1 (stereo not given) | inconclusive [activator, single point] | 
34 | Cc1cccc(NC(=O)CSc2cccc3cccnc23)c1C | inconclusive [activator, single point] | 
35 | COc1ccc(C(O)c2nc(-c3ccc(C)c(C)c3)cs2)cc1 (stereo not given) | inconclusive [activator, partial curve, poor fit] | 
36 | Cc1ccc(CNC(=O)c2cc(Cl)cc(Cl)c2)n1C | inconclusive [activator, partial curve] | 
37 | O=C(c1ccc(-c2ccc([N+](=O)[O-])cc2)o1)N1CCCC(C(F)(F)F)C1 (stereo not given) | active: 35.5 µM | 
38 | COc1cc2[nH]c(=O)n(CCCCCC(=O)N3CCN(c4cccc(C(F)(F)F)c4)CC3)c(=O)c2cc1OC | inactive | 
39 | CC1CCN(C2(O)C(=O)Nc3ccc(Cl)cc32)CC1 (stereo not given) | inconclusive [activator, partial curve] | 
40 | O=C(Cn1nc(-c2ccccc2)c2ccccc2c1=O)Nc1cccc(O)c1 | inconclusive [activator, partial curve] | 
41 | CC(=O)N(Cc1cccnc1)c1nc2c(C)c(C)ccc2s1 | inconclusive [activator, partial curve, poor fit] | 
42 | COc1cccc(SCC(=O)N2CCN(c3ccccc3)CC2)c1 | inconclusive [activator, single point] | 
43 | CC(=O)c1cccc(NC(=O)c2cccc3c(-c4cccnc4)coc23)c1 | inconclusive [activator, partial curve] | 
44 | CC(C)Cn1c(SC(C)C(=O)Nc2ccc(N3CCOCC3)cc2)nc2ccccc21 (stereo not given) | inconclusive [activator, full curve] | 
45 | O=C(c1ccc(Cn2cc(Br)cn2)cc1)N1CCN(c2ccccc2)CC1 | inconclusive [activator, single point] | 
46 | COc1ccc(N2C(=O)CC(Sc3nnc(-c4ccccc4)o3)C2=O)cc1 (stereo not given) | active: 11.2 µM | 
47 | CCCCSc1nnc(-c2ccccc2)c2ccccc12 | inconclusive [activator, single point] | 
48 | CCOc1ccc(NC(=O)Nc2cc(C)on2)cc1 | inconclusive [activator, single point] | 

Row | Structure (SMILES) | Potency | growth rescue (activation)
49 | CCC(Oc1ccccc1)C(=O)NCc1cccnc1 (stereo not given) | inconclusive [activator, partial curve, poor fit] | 
50 | CCCc1cc(C(N)=O)c(NC(=O)c2ccoc2C)s1 | inconclusive [activator, single point] | 
51 | O=c1c(Cl)c(Cl)cnn1Cc1ccc(F)cc1 | active: 20 µM | 
52 | CCCS(=O)(=O)c1c(Nc2ccccc2C)sc(C(=O)c2ccccc2)c1N | inactive | 
53 | Cc1nc(Nc2nc3c(c(=O)[nH]2)CCC3)nc2ccccc12 | active: 14.1 µM | 
54 | COc1ccc(NC(=O)Cn2c(=O)oc3cc(S(=O)(=O)N4CCC(C)CC4)ccc32)c(OC)c1 | inactive | 
55 | CCc1c(C)nc2cc(-c3cc(OC)cc(OC)c3)nn2c1N1CCCC1 | inconclusive [activator, single point] | 
56 | CCOC(=O)[C@]12CCCC=C1N(Cc1ccc(Cl)cc1Cl)C(=O)[C@H](CC(=O)NCCc1ccccc1OC)C2 | inconclusive [activator, partial curve] | 
57 | CCN(CC)S(=O)(=O)c1ccc(C)c(NC(=S)NNC(=O)C2CC2)c1 | inactive | 
58 | COc1ccc2c(-c3ccccc3)cc(SCC(=O)N(C)C)nc2c1 | active: 22.4 µM | 
59 | Cn1c(CNC(=O)c2ccccc2F)nnc1SCCOc1ccccc1 | inconclusive [activator, partial curve, poor fit] | 
60 | COc1ccccc1C1CCN(C(=O)c2cccc([N+](=O)[O-])c2)CC1 | active: 15.8 µM | 
61 | CCOC(=O)c1csc(N/N=C2\CCCc3ccccc32)n1 | inconclusive [activator, partial curve] | 
62 | COC(=O)c1nc(NC(=O)c2ccc(C(C)(C)C)cc2)n[nH]1 | inconclusive [activator, single point] | 
63 | Cc1ccc(-n2c(C)nc3c(cnn3-c3ccccc3C)c2=O)cc1F | inconclusive [activator, single point] | 
64 | FC(F)(F)c1nc(=S)c2ccccc2[nH]1 | active: 10 µM | 
65 | Cc1ccccc1NC(=O)c1cccc(C(F)(F)F)c1 | inconclusive [activator, partial curve] | 
66 | O=C(NCc1cccc(F)c1)c1ccc(-n2cnc3cccnc32)cc1 | inactive | 
67 | C#CCN(C[C@@H]1[C@@H](OC(=O)Nc2cccs2)[C@@H](OC(=O)Nc2cccs2)Cn2c(=O)n(CCCCCC)c(=O)n21)S(=O)(=O)c1ccc(C)cc1 | inactive | 
68 | CCn1c(SCC(=O)Nc2nc3ccccc3s2)nc2c(c1=O)SC(C)C2 (stereo not given) | inconclusive [activator, single point] | 
69 | Cc1cccc(NC(=O)c2cc3c([nH]c4ccccc43)c(C)n2)c1C | inactive | 
70 | O=C(CN1C(=O)CC(c2ccco2)Sc2ccccc21)NC1CCCCC1 (stereo not given) | inconclusive [activator, partial curve] | 
